{"source": "PubChem BioAssay AID602332", "about": "(National Center for Advancing Translational Sciences (NCATS), 2012)", "note": "Hit rate of the full screen: of about 420,000 compounds, about 75 (0.02%) were called active. The inconclusive results got no clear call from the source; some entries with a clear call stand among them for comparison. The call rests on the fitted dose curve; in most records, active means well fitted activation curve with a large enough effect; inconclusive means small, poorly fitted or top-dose-only effect; inactive means no such curve, though single readings can be large or run the other way. Potencies of inconclusive entries are doubtful fits and often do not repeat. Potency means the concentration at half of the fitted maximal effect; tags describe the fitted curve by direction and shape."}
{"assay": "qHTS for Inducers of the Endoplasmic Reticulum Stress Response (ERSR) in Human Glioma: qHTS; further: nearly all actives have a fitted effect of over 35% in size; on activation: % of control where 0% means no effect", "settings": "U87-MG GRP78 promoter luciferase reporter, 16 h; activation: active compounds read high", "procedure,_shortened": "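Stably transfected U87-MG human glioma cells carrying a GRP78-based luminescent sensor were seeded at 1000 cells/well, pin-dosed with compounds and incubated 16 h. Luciferase reagent was then added, and end-point luminescence was read after 10 min at room temperature.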"}
{"smiles": "CC(C)(C)c1ccc(S(=O)(=O)NC(=O)C2(C)CCN2C(=O)Cc2ccc(-c3ccccc3)cc2)cc1", "note": "(configuration not stated)", "Potency": "inconclusive: 50.1 µM [activator, single point]"}
{"smiles": "O=[N+]([O-])c1ccc(O/N=[N+](\\[O-])N2CCN(c3ncccn3)CC2)c([N+](=O)[O-])c1", "Potency": "inconclusive: 14.1 µM [activator, single point]"}
{"smiles": "O=C(Nc1nccs1)c1cccc(S(=O)(=O)N2CCOCC2)c1", "activation": "inactive: -0.349%"}
{"smiles": "Cc1ccc(C)n1/N=C1/NC(=O)CS1", "activation": "inactive: -5.9%"}
{"smiles": "COc1cc(/C=C/CN2CCC(C(=O)NC(c3ccc(F)cc3)c3ccc4ccccc4n3)CC2)ccc1OC(C)=O", "note": "(configuration not stated)", "Potency": "inconclusive: 10 µM [activator, partial curve, poor fit]"}
{"smiles": "O=C(O)c1ccc(/C=C2\\COc3ccccc3C2=O)cc1", "Potency": "inconclusive: 50.1 µM [activator, single point]"}
{"smiles": "CCOC(=O)c1c(NC(=O)CN2CCN(c3cccc(Cl)c3)CC2)sc(C)c1C", "activation": "inactive: -1.02%"}
{"smiles": "CCC1(C2CCN(Cc3ccc(OC)cc3)CC2)NC(=O)N(CC2COc3ccccc3O2)C1=O", "note": "(configuration not stated)", "activation": "inactive: -5.51%"}
{"smiles": "CCN1CCCC1CNC(=O)c1cnn(-c2nccc(-c3cc4ccccc4o3)n2)c1C", "note": "(configuration not stated)", "activation": "inactive: -1.7%"}
{"smiles": "CCCCC(=O)NNC(=S)NC(=O)C(c1ccccc1)c1ccccc1", "Potency": "inconclusive: 17.8 µM [activator, full curve]"}
{"smiles": "CCOc1ccc(NS(=O)(=O)c2ccc(C(=O)NCCN3CCOCC3)cc2)cc1", "activation": "inactive: -2.13%"}
{"smiles": "COc1ccc(-c2cnc3c(NC(C)=O)cc(-c4ccsc4)cn23)cc1OC", "Potency": "inconclusive: 44.7 µM [activator, partial curve, poor fit]"}
{"smiles": "O=C(O)CC(C(=O)OC1CCCCC1)N1CCOCC1", "note": "(configuration not stated)", "activation": "inactive: -0.82%"}
{"smiles": "COc1cc(-c2nnc(SCC(=O)Oc3ccccc3)o2)cc(OC)c1OC", "Potency": "inconclusive: 10 µM [activator, full curve, poor fit]"}
{"smiles": "Cc1ccc(CNc2ccc(O)cc2)cc1", "Potency": "inconclusive: 15.8 µM [activator, single point]"}
{"smiles": "CCC(=O)N1CCN(c2ccccc2NC(=O)c2ccc([N+](=O)[O-])o2)CC1", "Potency": "inconclusive: 12.6 µM [activator, full curve]"}
{"smiles": "Nc1nc(Nc2ccccc2F)sc1C(=O)c1ccccc1", "Potency": "inconclusive: 2.24 µM [activator, full curve, poor fit]"}
{"smiles": "CCOC(=O)c1c(C)oc2c1c(C(c1ccncc1)N1CCOCC1)c(O)c1ccccc12", "note": "(configuration not stated)", "Potency": "inconclusive: 10 µM [activator, full curve]"}
{"smiles": "COc1ccc(C(OC(=O)c2ccco2)C(=O)NC2CCCC2)cc1", "note": "(configuration not stated)", "activation": "inactive: -3.32%"}
{"smiles": "Cc1ccc(NC(=O)c2ccccc2OCc2ccc([N+](=O)[O-])cc2)nc1", "Potency": "inconclusive: 11.2 µM [activator, partial curve, poor fit]"}
{"smiles": "CC(=O)Nc1ccc(S(=O)(=O)Nc2ccccc2C(=O)N2CCOCC2)cc1", "Potency": "inconclusive: 28.2 µM [activator, single point]"}
{"smiles": "Cc1ccccc1CNS(=O)(=O)c1c(C(=O)N2CCCC2)c(C)n(C)c1C", "activation": "inactive: -2.12%"}
{"smiles": "Cc1ccc(Cc2c(-c3ccc(Br)cc3)nc3cc(C)ccn23)cc1", "activation": "inactive: 6.84%"}
{"smiles": "O=C(COc1cccc2ccccc12)Nc1ccc(Cl)cc1C(=O)O", "Potency": "inconclusive: 44.7 µM [activator, single point]"}
{"smiles": "C=CCn1c(=O)c(C(=O)Nc2ccccc2O)c(O)c2ccccc21", "Potency": "inconclusive: 44.7 µM [activator, partial curve, poor fit]"}
{"smiles": "O=C(CCN1C(=O)/C(=C/c2ccccc2Cl)SC1=S)NNC(=O)c1ccccc1O", "activation": "inactive: -5.71%"}
{"smiles": "C=CCN1C2CCCC1CC(NC(=S)Nc1ccc(Cl)cc1)C2", "note": "(configuration not stated)", "activation": "inactive: -1.49%"}
{"smiles": "CCn1c(=O)c(C(=O)Nc2nc3ccccc3[nH]2)c(O)c2ccccc21", "Potency": "inconclusive: 2.24 µM [activator, full curve]"}
{"smiles": "CNc1nc(NCCOC23CC4CC(CC(C4)C2)C3)nc(OCC(F)(F)F)n1", "Potency": "inconclusive: 56.2 µM [activator, single point]"}
{"smiles": "CCS(=O)(=O)c1c(Nc2cc(C)ccc2C)sc(C(=O)c2ccccc2)c1N", "Potency": "inconclusive: 31.6 µM [activator, partial curve]"}
{"smiles": "COc1cn(-c2ccccc2)nc1C(=O)Nc1ccccc1", "Potency": "inconclusive: 12.6 µM [activator, single point]"}
{"smiles": "CCOC(=O)Cc1c(C)nc2c(-c3cccc(Br)c3)c[nH]n2c1=O", "Potency": "inconclusive: 70.8 µM [activator, single point]"}
{"smiles": "Cc1ccc(C)c(OCc2cc(C(=O)N3CCN(c4ccccc4)CC3)no2)c1", "Potency": "inconclusive: 8.91 µM [activator, full curve, poor fit]"}
{"smiles": "C=CCn1c(SC(C)CC)nc(O)cc1=O", "note": "(configuration not stated)", "Potency": "inconclusive: 50.1 µM [activator, single point]"}
{"smiles": "COc1ccc2c(c1)C1=NN(/C(C)=C/C(C)=O)C(c3cccc(F)c3)C1CC2", "note": "(configuration not stated)", "activation": "inactive: 7.83%"}
{"smiles": "Cc1cc(C)cc(C(=O)N(C)C2CCCN(Cc3ccccc3F)C2)c1", "note": "(configuration not stated)", "activation": "inactive: 0.382%"}
{"smiles": "O=C(NC(=S)Nc1ccccc1C(=O)O)c1ccc(-c2ccc(Br)cc2)o1", "Potency": "inconclusive: 44.7 µM [activator, partial curve, poor fit]"}
{"smiles": "Cc1ccc2c(CN3CCC(C)CC3)cc(=O)oc2c1", "Potency": "inconclusive: 10 µM [activator, partial curve, poor fit]"}
{"smiles": "CS(=O)(=O)N1CCC(C(=O)Nc2cccc([N+](=O)[O-])c2)CC1", "activation": "inactive: -0.722%"}
{"smiles": "COC(=O)c1c(N)nc(C)n1-c1ccc(OC)cc1", "activation": "inactive: -2.08%"}
{"smiles": "O=C(N/N=C/C=N/NC(=O)c1ccco1)c1ccco1", "Potency": "inconclusive: 14.1 µM [activator, single point]"}
{"smiles": "CC(=O)Nc1ccc(NC(=O)c2c([N+](=O)[O-])c(C(C)(C)C)nn2C)cc1", "activation": "inactive: -8.25%"}
{"smiles": "Cn1c(=O)[nH]c(=O)c2c1nc(N1CCC(Cc3ccccc3)CC1)n2Cc1ccccc1", "Potency": "inconclusive: 44.7 µM [activator, single point]"}
{"smiles": "CCOC(=O)N1CCC(NC(=O)CCN2C(=O)COc3ccccc32)CC1", "activation": "inactive: -3.27%"}
{"smiles": "CCNC(=O)COc1ccc(/C=C2\\COc3ccccc3C2=O)cc1OC", "Potency": "inconclusive: 12.6 µM [activator, single point]"}
{"smiles": "Cn1nc(C(F)(F)F)c(/C=N/OC(=O)c2ccccc2)c1SCc1ccccc1Cl", "Potency": "inconclusive: 20 µM [activator, single point]"}
{"smiles": "CCC(=O)Oc1ccc(C(=O)Nc2ccc([N+](=O)[O-])cc2)cc1", "activation": "inactive: 5.74%"}
{"smiles": "CCCCCCC(=O)c1c(C)[nH]c(C(=O)OCC)c1C", "Potency": "inconclusive: 50.1 µM [activator, single point]"}
{"smiles": "O=C(COC(=O)C1=COCCO1)Nc1ccc(OC(F)F)cc1", "Potency": "inconclusive: 28.2 µM [activator, single point]"}
{"smiles": "Cn1c(=O)c(NCCc2ccccc2)c2c3c(cccc31)C(=O)c1ccccc1-2", "activation": "inactive: -5.88%"}
{"smiles": "CCOC(=O)C1=NOC(C(=O)NN(C)c2ncc(C(F)(F)F)cc2Cl)C1", "note": "(configuration not stated)", "Potency": "inconclusive: 50.1 µM [activator, partial curve, poor fit]"}
{"smiles": "COc1ccc(Br)cc1CNc1ccc(O)cc1", "Potency": "inconclusive: 50.1 µM [activator, single point]"}
{"smiles": "O=C(O)c1cnn(-c2nc(-c3ccc(Cl)c(Cl)c3)cs2)c1C(F)(F)F", "Potency": "inconclusive: 50.1 µM [activator, single point]"}
{"smiles": "CC1CCc2c(sc(N)c2C(N)=O)C1", "note": "(configuration not stated)", "activation": "inactive: 2.75%"}
{"smiles": "CCOC(=O)c1c(NC(C)=O)sc2c1CCC(C=NCCCN(CC)CC)=C2Sc1ccccc1", "Potency": "inconclusive: 17.8 µM [activator, single point]"}
{"smiles": "CCN1Cc2c(/C=C/c3ccccc3)nc3ccc(OC)cc3c2N(c2cccc(Cl)c2)C1", "Potency": "inconclusive: 44.7 µM [activator, partial curve, poor fit]"}
{"smiles": "Cc1noc(C)c1C(=O)N1CCC2(CCCN(C(c3ccccc3)c3ccccc3)C2)CC1", "Potency": "active: 28.2 µM"}
{"smiles": "O=C(CCCn1c(=O)oc2ccccc21)NNC(=O)COc1ccc(F)cc1", "Potency": "inconclusive: 10 µM [activator, single point]"}
{"smiles": "CN(C)c1ccccc1-c1cc(NC=O)c2ncc(-c3cccc(C(F)(F)F)c3)n2c1", "Potency": "inconclusive: 44.7 µM [activator, partial curve, poor fit]"}
{"smiles": "Nc1cccc2c1C(=O)N(C(=O)/C=C/c1cccc(F)c1)C2=O", "Potency": "inconclusive: 11.2 µM [activator, single point]"}
{"smiles": "COc1ccc2nc(N(Cc3cccnc3)C(C)=O)sc2c1", "activation": "inactive: -0.582%"}
{"smiles": "Fc1ccc(N2CCN(Cc3cn[nH]c3-c3ccccc3)CC2)cc1", "Potency": "inconclusive: 28.2 µM [activator, single point]"}
{"smiles": "Cc1ccc(N(C(=O)c2csnn2)C(C(=O)NC2CCCCC2)c2ccccn2)cc1C", "note": "(configuration not stated)", "Potency": "inconclusive: 20 µM [activator, single point]"}
{"smiles": "C=CCc1cccc(C2NC(C(=O)O)CCC2C)c1", "note": "(configuration not stated)", "activation": "inactive: -2.55%"}
{"smiles": "CN(C)S(=O)(=O)Nc1ccc(NS(=O)(=O)N(C)C)c(S(=O)(=O)c2ccccc2)c1", "activation": "inactive: -1.04%"}
{"smiles": "COc1cc([C@@H]2[C@H]3CNCC=C3C(C#N)=C(N)C2(C#N)C#N)ccc1OC(C)C", "activation": "inactive: -1.35%"}
{"smiles": "Cc1ccc(S(=O)(=O)N2C[C@@H](C)[C@]3(C2)[C@H](O)[C@H](OC(=O)Nc2cccs2)C[C@H]2C(=O)N(c4ccccc4)C(=O)[C@H]23)cc1", "Potency": "inconclusive: 50.1 µM [activator, single point]"}
